Screen size: about 52,000 compounds; about 1,700 (3.3%) were called active. Rule as the data show it: active = survival mostly below about 52% (no sharp cut-off); inactive = mostly above about 56%. The list shows a part of the results.
What follows are molecules tested on Wild type (assay: S. aureus survival, RN4220 and DeltatarO strains – OD600, teichoic acid synthesis inhibitors, primary screen (AID 463173)). Conditions: S. aureus RN4220 wild type/DeltatarO growth, OD600, 18 h, active compounds read low, screened at 18.75 µg/mL (by protocol).

Structure (SMILES)	survival
COc1cccc(-n2ccnc2SCC(=O)Nc2cccc(C)c2C)c1	inactive: 97%
O=C(CN1CCC(n2nnc3ccccc32)CC1)Nc1cccc(F)c1	inactive: 106%
CCCC(=O)NCC(c1ccc2c(c1)OCO2)N1CCN(c2ccc(F)cc2)CC1 (stereo not given)	inactive: 71%
CCc1ccc(NC(=O)Cn2cnc3sc(C)c(S(=O)(=O)N4CCC(C)CC4)c3c2=O)cc1	inactive: 97%
Cc1sc2nc(CN(CCc3ccccc3)C(=O)c3ccco3)[nH]c(=O)c2c1C	inactive: 100%
COc1ccc(-n2ncc(C(=O)NCc3ccccc3)c2C2CCN(C(=O)OC(C)(C)C)CC2)cc1	inactive: 67%
COc1ccc(-c2nc3c(C#N)c[nH]n3c2NC2CCCCC2)c(OC)c1	inactive: 78%
Cc1ccc(OCc2nc3ccccc3n2CC(C)C)cc1	active: -1%
COc1ccc(CCNC(=O)CCn2c(=O)c3cccn3c3ccc(F)cc32)c(OC)c1OC	inactive: 54%
CCOc1ccccc1CNC(=O)Nc1cn(CC(C)C)c(=O)c2ccccc12	inactive: 95%
Cc1cc2c(cc1S(=O)(=O)NCc1ccc(N(C)C)cc1)OCC(=O)N2	inactive: 83%
CC(Oc1ccccc1)C(=O)Nc1nc2ccc(S(N)(=O)=O)cc2s1 (stereo not given)	inactive: 74%
CC1(c2ccc(Cl)cc2)CC(C)(C)N(C(=O)c2ccccc2)c2ccccc21 (stereo not given)	active: -11%
Cc1ccc(CN2CCC(CNc3ncnc4onc(-c5ccc(Cl)cc5)c34)CC2)cc1	inactive: 77%
COc1ccc(N(CC(=O)NC(C)c2ccccc2)S(=O)(=O)c2c(C)noc2C)cc1 (stereo not given)	inactive: 88%
CCCN(C(=O)c1cc2c(s1)-c1ccccc1SC2)c1ccccc1F	active: 1%
COc1cc(C2NC(=O)NC(C)=C2C(=O)Nc2cc(C)cc(C)c2)ccc1O (stereo not given)	inactive: 69%
CCOC(=O)c1c(C)c(-c2ccccc2)n(CC(=O)Nc2cc(OC)cc(OC)c2)c1C	inactive: 88%
CCOC(=O)c1noc2ncnc(N3CCN(c4ccccc4OC)CC3)c12	inactive: 73%
CC(C(=O)O)c1n[nH]c(=O)c2ccccc12 (stereo not given)	inactive: 109%
COC(=O)CNC(=O)Nc1cc(C(=O)NCc2ccc(C)cc2)ccc1N1CCCC1	inactive: 71%
CC(C)(C)NS(=O)(=O)c1ccc2nc(NC(=O)c3cccnc3)sc2c1	inactive: 75%
CCOC(=O)/C(C#N)=C\N1CCOCC1	inactive: 107%

Structure (SMILES)	survival
COC(=O)C1CCN(S(=O)(=O)c2cc3c4c(c2)C(C)C(=O)N4CCC3)CC1 (stereo not given)	inactive: 125%
CC(=O)N1c2ccccc2CC1C(=O)N1CCN(c2ccc(F)cc2)CC1 (stereo not given)	inactive: 132%
COc1ccc(C)cc1NC(=O)c1oc2ccc(S(=O)(=O)N(C)C3CCCCC3)cc2c1C	inactive: 74%
Cc1ccc(Cn2c(SCC(=O)NCc3ccc(Cl)cc3)nc3ccsc3c2=O)cc1	inactive: 128%
CCc1cc(C(=O)Nc2c(C)nn(Cc3ccc(C)cc3)c2C)no1	inactive: 78%
CC(C)(C)c1cc(C(C)(C)C)c2oc(=O)c(-c3nc4ccccc4[nH]3)cc2c1	inactive: 73%
O=C(CSc1nc2ccccc2c2nc(-c3ccccc3)nn12)Nc1ccc(Br)cc1	inactive: 70%
COCCCNC(=O)Cn1c(=O)n(-c2ccc(C)cc2)c(=O)c2c1c1cc(C)ccc1n2C	inactive: 73%
COc1ccc2c(c1)CCN(Cc1cc3sccc3n1CC1CCCCC1)C2	inactive: 108%
CCS(=O)(=O)N1CC(=O)N(c2ccccc2C)C(C)(C(=O)NC2CCCCC2)C1 (stereo not given)	inactive: 82%
Cc1ccc(NC(=O)CN2CCCN(Cc3cc(C)ccc3C)S2(=O)=O)c(Cl)c1	inactive: 55%
COc1cccc(N2CCN(C(=O)C3CCC(CNS(=O)(=O)c4ccc(Br)s4)CC3)CC2)c1 (stereo not given)	inactive: 71%
Cc1ccc(Cl)cc1N1CCN(C(=O)c2cn(C3CCCCC3)c(=O)c3c2c2ccccc2n3C)CC1	inactive: 76%
CN(C)c1ccc(C(CNC(=O)COc2ccc(Cl)cc2)N2CCOCC2)cc1 (stereo not given)	inactive: 47%
NC(=O)c1cc(S(=O)(=O)NCc2ccccc2)cs1	inactive: 112%
CC(C)(C)NC(=O)CN1CCN(c2nc(-c3ccc(Cl)cc3)cs2)CC1	inactive: 124%
COc1cccc(-c2nc3c(c(SCc4ccccc4)n2)Cc2c(CO)cnc(C)c2O3)c1	inactive: 101%
C=CCc1c(C)nc2nc(SCC(=O)Nc3ccccc3CC)nn2c1C	inactive: 47%
CCOc1ccc(CCNC(=O)CN2CCN(Cc3ccc(F)cc3Cl)C2=O)cc1OCC	inactive: 72%
CCCn1c(=O)n(-c2ccccc2)c(=O)c2sc3ccccc3c21	inactive: 93%
CN(C(=O)CCNC(=O)Cn1cnc2ccccc2c1=O)c1ccccc1F	inactive: 79%
COC(=O)CN1C(=O)CSc2ccc(S(=O)(=O)Nc3ccc(Cl)cc3C)cc21	inactive: 130%
CCCOc1ccccc1C(=O)N1CCC(c2nc3ccccc3s2)CC1	inactive: 68%

Structure (SMILES)	survival
CCOC(=O)CSc1nc2cc3c(cc2c(=O)n1CCCC(=O)NCc1ccc2c(c1)OCO2)OCO3	inactive: 84%
CC(C)Cc1nn2c(=O)cc(COC(=O)c3cccc(NC(=O)CCc4ccccc4)c3)nc2s1	inactive: 75%
C=Cc1ccc(CSc2nc(-c3ccc(OC)cc3)nc3c2Cc2c(CO)cnc(C)c2O3)cc1	inactive: 83%
Cc1ccc2ccc(C(Nc3ccccn3)c3ccccc3)c(O)c2n1 (stereo not given)	inactive: 69%
COc1ccccc1OCc1ccoc1C(=O)O	inactive: 115%
Clc1ccc(CCNc2ncnc3c2c(-c2ccccc2)cn3-c2ccccc2)cc1	inactive: 70%
COc1ccc(C(=O)CN2C(=O)N(c3cc(C)cc(C)c3)S(=O)(=O)c3ccccc32)cc1	inactive: 76%
COc1ccccc1C(=O)Nc1nc2ccc(S(=O)(=O)N3CCCC3)cc2s1	inactive: 45%
NCCc1nnc(SCc2ccc(Cl)cc2)o1	inactive: 148%
Cc1cccc(NCc2ccc(N(C)C)cc2)n1	inactive: 99%
CCCCC(=O)Nc1cccc(OCc2cc(=O)n3ccccc3n2)c1	inactive: 72%
Cc1ccc(Nc2c(-c3ccc(C)cc3)nc3cnccn23)cc1	inactive: 23%
COc1ccccc1CNC(=O)Cn1ncc2c(=O)oc3ccc(C)cc3c21	inactive: 86%
Cc1ccccc1CS(=O)(=O)Cc1ccc(C(=O)NCCc2ccccc2)o1	inactive: 75%
CCOC(=O)c1ccc(Nc2c(-c3ccc(O)cc3)nc3nc[nH]n23)cc1	inactive: 81%
COc1cc(C(=O)Nc2cc(C)ccc2OCc2cc(=O)n3cc(C)sc3n2)cc(OC)c1OC	inactive: 70%
O=C(OC1OCCOC1OC(=O)C1CCCCC1)C1CCCCC1 (stereo not given)	inactive: 104%
CC(C)c1ccc(CNCCSc2nnnn2C)cc1	inactive: 85%
Cc1ccc(S(=O)(=O)N=C2SCCCS2)cc1	inactive: 102%
CCOC(=O)C1CCCN(c2ncnc3c2cnn3-c2ccc(C)c(Cl)c2)C1 (stereo not given)	inactive: 75%
Cc1ccc(NC(=O)CSc2nc3c(c(=O)[nH]2)CN(Cc2ccc4c(c2)OCO4)CC3)cc1C	inactive: 80%
Cn1c(=O)c2c(SCC(=O)NCc3ccco3)nc(-c3ccccc3Cl)nc2n(C)c1=O	inactive: 65%
CCOC(=O)c1ccc(NC(=O)c2oc3ccc4c(c3c2C)C(=O)CC(C)(CC)O4)cc1 (stereo not given)	inactive: 94%

Structure (SMILES)	survival
Cc1nc2c(-c3ccccc3)c(C)nn2c(C)c1CCC(=O)NCc1cccc(Cl)c1	inactive: 134%
Cc1nnc(NC(=O)c2nc(S(=O)(=O)Cc3ccccc3)ncc2Cl)s1	inactive: 69%
CCOc1ccc(NC(=O)C(C)Sc2nnc3cc(C)c4ccccc4n23)cc1 (stereo not given)	inactive: 75%
CCc1ccccc1NC(=O)c1cc(S(=O)(=O)NCCc2ccc(OC)c(OC)c2)ccc1F	active: 0%
COc1ccc(OCC(=O)Nn2cnnc2)cc1	inactive: 102%
COc1ccc(-c2nc3cnccn3c2NCc2ccc3c(c2)OCO3)cc1CN1CCOCC1	inactive: 124%
CC(=O)Nc1c(C)nn(-c2ccccc2)c1N1CCC(C(=O)Nc2cc(Cl)ccc2C)CC1	inactive: 82%
Cc1cccc(NC(=O)C(=O)NCC(c2cccnc2)N2CCOCC2)c1 (stereo not given)	inactive: 95%
CCCOc1ccc(C2c3c(-c4ccccc4O)n[nH]c3C(=O)N2Cc2ccncc2)cc1OCC (stereo not given)	inactive: 93%
CS(=O)(=O)N1CCN(C2CCCCC2)CC1	inactive: 107%
COc1ccc(C)cc1NC(=O)C(=O)NCCc1csc(-c2ccc(C)cc2)n1	inactive: 66%
Cc1ccc(CCNC(=O)C2CCCN(Cc3nc(-c4cccc(Cl)c4)oc3C)C2)cc1 (stereo not given)	active: 9%
CCOC(=O)c1c(C)c(C(=O)NCCc2ccc(OC)cc2)c(C)n1C	inactive: 88%
Cc1cccc(CNC(=O)c2cnc3sc(N4CCCCC4)nn3c2=O)c1	inactive: 132%
CCc1nn(CC(=O)Nc2cccc(C)c2C)c(=O)c2cc3sccc3n12	inactive: 83%
CN(C(=O)CSc1cn(CC(=O)N2CCCCC2)c2ccccc12)c1ccccc1	inactive: 90%
COc1ccc(/C=C/c2nc(C#N)c(N3CCN(c4ccccc4)CC3)o2)cc1OC	inactive: 112%
O=C(Cc1ccc(F)cc1)N1CCC(c2nc3c(nnn3Cc3ccc(Cl)cc3)c(=O)[nH]2)CC1	inactive: 33%
COc1ccc(-c2noc(C3CC(=O)N(c4cc(C)cc(C)c4)C3)n2)cc1 (stereo not given)	inactive: 81%
CCC(Oc1ccccc1)C(=O)Nc1ccccc1OCc1cc(=O)n2ccccc2n1 (stereo not given)	inactive: 71%
CCC(C)NC(=O)c1ccc2c(c1)N(Cc1ccccc1)C(=O)c1ccccc1S2(=O)=O (stereo not given)	inactive: 85%

Reference: PubChem BioAssay AID463173 (ICCB-Longwood Screening Facility, Harvard Medical School, 2010)
